Source: PubChem BioAssay AID504832 (National Center for Advancing Translational Sciences (NCATS), 2011)
Out of some 310,000 compounds screened, about 18,000 (5.8%) were called active. This list was built around the results that the source calls inconclusive (neither active nor inactive); the mix of calls is not that of the screen. The call rests on the fitted dose curve; in most records, active means well fitted inhibition curve with a large enough effect; inconclusive means small, poorly fitted or top-dose-only effect, or another doubt; inactive means no such curve, though single readings can be large or run the other way. No potency is given beside an inconclusive call; the fits are too rough.

assay: Primary qHTS for delayed death inhibitors of the malarial parasite plastid, 48 hour incubation; conditions: P. falciparum luciferase growth in erythrocytes; series mostly up to 28.7 µM; activity change, negative = inhibition: at the top concentration
Method in brief: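 Luminescence readout; reporter = integrated firefly luciferase in P. falciparum. RBC culture at 2% hematocrit, 0.1% parasitemia final, 37 C/5% CO2; decreased signal taken as growth inhibition.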
On the % scale 0 is the no-effect control and ±100 the full control effect; potency means the concentration at half of the fitted maximal effect; tags describe the fitted curve by direction and shape.

Structure (SMILES) | activity change, negative = inhibition | Potency
CCOC(=O)c1c(C)[nH]c(N=Nc2cc(C(=O)O)cc(C(=O)O)c2)c1C | inactive: -8.11% | –
Nc1nonc1C(=O)NCCNS(=O)(=O)c1ccc(F)cc1 | inactive: 14.7% | –
COc1cc(Br)cc(/C=C/c2ccc3cccc(O)c3n2)c1OC | – | inconclusive [inhibitor, full curve, poor fit]
CC1=C(C)/C(=N/OC(=O)c2cccc([N+](=O)[O-])c2)C=CC1=O | – | inconclusive [inhibitor, single point]
COc1cc(CN2CCNC(=O)C2CC(=O)NCCCC2CCCC2)cc(OC)c1 (centres undefined) | inactive: 2.5% | –
N#Cc1nc(-c2ccccc2Cl)oc1N1CCN(C(=O)c2ccco2)CC1 | – | inconclusive [inhibitor, single point]
CCOC(=O)N1C(=O)[C@@](CC)(c2ccccc2)N1C(=O)OCC | inactive: 36.3% | –
COc1ccc(N2CCN(CC(=O)c3ccc(O)c(C)c3O)CC2)cc1 | – | inconclusive [inhibitor, single point]
COc1ccc(-c2nc(CN(CC3CCC(=O)N3)C(C)C)c(C)o2)c(C)c1C (centres undefined) | inactive: 0% | –
CC(=O)Nc1ccc(Nc2cc(C)nc3c(-c4ccc(Cl)cc4)cnn23)cc1 | inactive: 89% | –
CCCCC(=O)N(CCOC)c1nnc(-c2ccccc2C)s1 | – | inconclusive [inhibitor, single point]
Cc1cc(C)n(C(C)CC(=O)Nc2ccc(-c3ccno3)cc2)n1 (centres undefined) | – | inconclusive [inhibitor, single point]
Cc1ccc(NC(=O)CCCOc2ccccc2)cc1S(=O)(=O)N1CCOCC1 | – | active: 10.4 µM
CC(C)n1c(CN(C)c2ccccc2)nc2ccccc21 | – | inconclusive [inhibitor, partial curve]
CC(C)n1c(=N)c(C(=O)NCCc2ccccc2)cc2c(=O)n3ccccc3nc21 | – | inconclusive [inhibitor, single point]
O=C(COC(=O)Cc1ccc(F)cc1)NC1CCS(=O)(=O)C1 (centres undefined) | inactive: -6.93% | –
COCCn1c(COc2cccc(OC)c2)nnc1SCC(=O)NC1CCCCC1 | – | inconclusive [inhibitor, single point]
N#Cc1c(SCC(=O)N2CCCCC2)nsc1SCC(=O)N1CCCCC1 | – | active: 14.7 µM
COc1ccc(C(=O)N/C(=C\c2ccccc2)C(=O)NCCCn2ccnc2)cc1 | – | inconclusive [inhibitor, partial curve]
COc1ccc(C(=O)NCCc2nnc3ccc(SCC(=O)N4CCCC4)nn23)cc1 | inactive: 22.6% | –
O=C(COc1ccc(Br)cc1)NCCCNC(=O)c1cnccn1 | – | inconclusive [inhibitor, single point]
CCCn1c(SCCN2CCOCC2)nc2c1c(=O)n(C)c(=O)n2C | inactive: 0.996% | –
O=C(CCS(=O)(=O)Cc1ccccc1)N1CCc2ccccc2C1 | inactive: 1.42% | –

Structure (SMILES) | activity change, negative = inhibition | Potency
Cc1ccc(CCNC(=O)NC(C)(C)C)cc1 | inactive: 66.8% | –
COC(=O)C1CCN(CC(=O)Nc2ccccc2Sc2ccccc2)CC1 | – | inconclusive [inhibitor, single point]
CCC(C)(C(=O)NC1CCCCC1)N(Cc1ccco1)C(=O)c1ccc2c(c1)OCO2 (centres undefined) | – | inconclusive [inhibitor, single point]
C=C(C)C1CC=C(C)/C(=N/NC(=O)C2CC2c2ccccc2)C1 (centres undefined) | – | inconclusive [inhibitor, single point]
CCOC(=O)c1c(OCCO)nn(-c2ccccc2)c1N | inactive: 20.4% | –
COc1ccc2c(CC(=O)OCC(=O)N3CCc4ccccc43)coc2c1 | inactive: 11.4% | –
Cc1cccc(C)c1OCC(O)Cn1nnc2ccccc21 (centres undefined) | inactive: 17.5% | –
CCOc1ccc(-n2c(SCC(=O)Nc3ccc(OC)cc3)nc3sc4c(c3c2=O)CCN(C)C4)cc1 | – | inconclusive [inhibitor, single point]
O=S(=O)(c1cccc(Cl)c1)N1CN(CC2CCCO2)c2nc3ccccc3nc21 (centres undefined) | – | inconclusive [inhibitor, partial curve]
CCc1cc2cc(C)ccc2nc1SCC(=O)N1CCN(C(=O)c2ccco2)CC1 | – | inconclusive [inhibitor, partial curve, poor fit]
CC1CCCN(CCCNC(=O)c2cn(C)c3ccc(S(=O)(=O)N(C)C4CCCCC4)cc3c2=O)C1 (centres undefined) | – | active: 13.1 µM
COc1ccccc1N(C(=O)CNS(=O)(=O)c1ccccc1)C(C(=O)NCc1ccco1)C(C)C (centres undefined) | – | inconclusive [inhibitor, partial curve]
CN(C(=O)c1ccc(NC(=O)Cc2cccc(NC(=O)C3CCCN(C(=O)CCc4ccccc4)C3)c2)cc1)C1CCCC1 (centres undefined) | – | active: 0.117 µM
Cc1cc(O)c(C2(O)C(=O)Nc3cc(Br)ccc32)cc1C (centres undefined) | – | inconclusive [inhibitor, single point]
O=C(Cc1ccccc1)NC1(O)C(=O)c2ccccc2C1=O | – | inconclusive [inhibitor, single point]
N#Cc1c(-c2ccc(Cl)cc2)ccn2nc(CCC(=O)O)nc12 | – | inconclusive [inhibitor, single point]
Oc1ccc(N=Cc2ccc(O)c(O)c2)cc1 | – | inconclusive [inhibitor, single point]
O=C(CSc1nc2ccc([N+](=O)[O-])cc2s1)NC1CCS(=O)(=O)C1 (centres undefined) | – | inconclusive [inhibitor, single point]
O=C(CSc1nnc(-c2cccc(Br)c2)o1)N1CCOCC1 | inactive: 27.6% | –
CC(=O)Nc1ccc(NC(=O)c2ccc(NS(=O)(=O)c3cc(C(C)(C)C)ccc3C)cc2)cc1 | – | inconclusive [inhibitor, full curve, poor fit]
Cc1ccc(C(=O)C(C)OC(=O)C2CCN(c3ccc(C(F)(F)F)cn3)CC2)cc1 (centres undefined) | – | inconclusive [inhibitor, single point]
CCS(=O)(=O)Nc1cccc(C2=NN(S(=O)(=O)CC)C(c3ccccc3)C2)c1 (centres undefined) | – | inconclusive [inhibitor, full curve, poor fit]
Cc1c(NC(=O)c2ccc(Cl)nc2)cccc1-c1nc2cccnc2s1 | – | inconclusive [inhibitor, partial curve, poor fit]

Structure (SMILES) | activity change, negative = inhibition | Potency
O=C1C(NS(=O)(=O)c2ccccc2)=C(N2CCN(c3ccc(F)cc3)CC2)C(=O)c2ccccc21 | – | active: 13.1 µM
CCOC(=O)CSc1nnc(CNc2ccc(Cl)cc2)n1-c1ccccc1 | inactive: 1.68% | –
CCN1CCN(c2ccc(NC(=O)c3ccc([N+](=O)[O-])o3)cc2Cl)CC1 | – | inconclusive [inhibitor, single point]
NNc1nc(-c2ccccc2)cc(-c2ccc(Br)cc2)n1 | – | inconclusive [inhibitor, partial curve, poor fit]
Cc1cc(Cl)c(OCCCn2cncn2)c(Br)c1 | – | inconclusive [inhibitor, single point]
CCN(c1ccccc1)S(=O)(=O)c1cccc(C(=O)NCCOc2ccccc2OC)c1 | – | inconclusive [inhibitor, partial curve, poor fit]
COc1ccc(/C=N/NC(=O)c2ccc(Cl)c(S(N)(=O)=O)c2)cc1OCC(N)=O | – | inconclusive [inhibitor, single point]
COc1ccc(OCCNc2cc(N3CCCCC3)ccc2[N+](=O)[O-])cc1 | – | inconclusive [inhibitor, partial curve, poor fit]
O=C1C2CCN(CC2)C1Cc1ccc(OCCOc2ccccc2)cc1 (centres undefined) | – | inconclusive [inhibitor, single point]
Oc1[nH]c2ccccc2c1C1=NCCCCC1 | inactive: 46.9% | –
CCOC(=O)c1ccc(/[N+]([O-])=C/c2ccccc2)cc1 | inactive: 161% | –
CCCCCCNC(=O)CCCCCNS(=O)(=O)c1ccc(Br)cc1 | – | inconclusive [inhibitor, single point]
CCN1CCN(C(c2ccccc2F)c2nnnn2Cc2ccc3c(c2)OCO3)CC1 (centres undefined) | – | inconclusive [inhibitor, partial curve, poor fit]
COC(=O)C1=C(c2ccc(-c3ccccc3)c(F)c2)C[C@@H]2CC[C@H]1N2C(=O)NC1CC1 | – | active: 4.65 µM
CC1CCN(S(=O)(=O)c2nnc(NC(=O)c3cccc([N+](=O)[O-])c3)s2)CC1 | inactive: -9.35% | –
CC(C)Nc1oc(-c2cccc3ccccc23)nc1C#N | – | inconclusive [inhibitor, single point]
Cn1c(=O)oc2cc(S(=O)(=O)Nc3ccc4c(c3)OCCO4)ccc21 | – | inconclusive [inhibitor, single point]
COc1cc2ncc(C(=O)c3ccccc3)c(N3CCN(Cc4ccccc4)CC3)c2cc1OC | – | active: 4.65 µM
O=C(O)c1ccc(NNC(=S)Nc2cc(C(F)(F)F)ccc2Cl)cc1 | inactive: 152% | –
c1ccc(-c2csc3ncnc(NCC4COc5ccccc5O4)c23)cc1 (centres undefined) | – | inconclusive [inhibitor, single point]
O=C(NCC(=O)N(CC1CCCO1)C(C(=O)NC1CCCCC1)c1ccccc1)c1cccs1 (centres undefined) | – | inconclusive [inhibitor, single point]
CCOCCCNC(=O)c1ccc(OC2CCN(C(C)=O)CC2)c(OC)c1 | – | inconclusive [inhibitor, full curve, poor fit]
Cc1c(C#N)c(NC(=O)CCl)n(Cc2ccccc2)c1C | – | inconclusive [inhibitor, partial curve, poor fit]
